First the molecules themselves.
B1: lipase inactive mutant PLD1 (K898R) (enzyme, UniProt P70496 1-1074)
chain: MSLRSEARVNTSTLQKIAADMSNLIENLDTRELHFEGEEVEYDASPGDPTAQEACIPFSSIYNTQGFKEPNIQIYLSGCPVKAQVLEVERFTSTSRMPSVNLYTIELTHGEFTWQVKRKFKHFQEFHRELLKYKAFIRIPIPTKRHTFRRQNVKEEPREMPSLPRSSENAIQEEQFFGRRKQLEDYLTKILKMPMYRNYHATTEFLDVSQLSFIHDLGPKGLEGMIMKRSGGHRIPGVNCCGHGRACYRWSKRWLIVKDSFLLYMKPDSGAIAFVLLVDKEFRIKVGKKETETKYGLRIDNLSRTLILKCNSYRHARWWGGAIEEFIQKHGTDFLKDHRFGSYAAVHENILAKWYVNAKGYFEDIANAMEGATEEIFITDWWLSPEIFLKRPVVEGNRWRLDCILKRKAQQGVRIFIMLYKEVELALGINSEYTKRTLMRLHPNIKVMRHPDHVSSSVYLWAHHEKLVIIDQSVAFVGGIDLAYGRWDDNEHRLTDVGSVKRVTSGQSLGSLTAASVESMESLSLKDKHQSHKNEPVLKSVNDTDMKLKGIGKSRKFSKFSLYRQLHRRNLHNSDSISSVDSASSYFNHYRSHQNLIHGIKPHLKLFRPSSESEQGLTRHSADTGSIRSVQTGVGELHGETRFWHGKDYCNFVFKDWVQLDKPFADFIDRYSTPRMPWHDIGSVVHGKAARDVARHFIQRWNFTKIMKPKYRSLSYPFLLPKSQATAHELRYQVPGAVHAKAQLLRSAADWSAGIKHHEESIHAAYTHVIENSKHYIYIENQFFISCADDKVVFNKVGNAIAQRILKAHREGQRYRVYIVIPLLPGFEGDISTGGGNALQAIMHFNYRTMCRGESSILEQLKPELGNKWINYISFCGLRTHAELEGNLVTELIYVHSRLLIADDNTVIIGSANINDRSMLGKRDSEMAVIVQDTETVPSVMDGKEYQAGRFAQGLRLECFRLVLGYLSDPSEDIQDPVSDKFFKEIWVSTAARNATIYDKVFRCLPNDEVHNLIQLRDFINKPILAKEDRLRAEEELRKIRGFLVQFPFYFLSEENLLPSVGTKEAIVPMEVWT
B2: PLD1 (R158Q) (enzyme, UniProt P70496 1-1074)
chain: MSLRSEARVNTSTLQKIAADMSNLIENLDTRELHFEGEEVEYDASPGDPTAQEACIPFSSIYNTQGFKEPNIQIYLSGCPVKAQVLEVERFTSTSRMPSVNLYTIELTHGEFTWQVKRKFKHFQEFHRELLKYKAFIRIPIPTKRHTFRRQNVKEEPQEMPSLPRSSENAIQEEQFFGRRKQLEDYLTKILKMPMYRNYHATTEFLDVSQLSFIHDLGPKGLEGMIMKRSGGHRIPGVNCCGHGRACYRWSKRWLIVKDSFLLYMKPDSGAIAFVLLVDKEFRIKVGKKETETKYGLRIDNLSRTLILKCNSYRHARWWGGAIEEFIQKHGTDFLKDHRFGSYAAVHENILAKWYVNAKGYFEDIANAMEGATEEIFITDWWLSPEIFLKRPVVEGNRWRLDCILKRKAQQGVRIFIMLYKEVELALGINSEYTKRTLMRLHPNIKVMRHPDHVSSSVYLWAHHEKLVIIDQSVAFVGGIDLAYGRWDDNEHRLTDVGSVKRVTSGQSLGSLTAASVESMESLSLKDKHQSHKNEPVLKSVNDTDMKLKGIGKSRKFSKFSLYRQLHRRNLHNSDSISSVDSASSYFNHYRSHQNLIHGIKPHLKLFRPSSESEQGLTRHSADTGSIRSVQTGVGELHGETRFWHGKDYCNFVFKDWVQLDKPFADFIDRYSTPRMPWHDIGSVVHGKAARDVARHFIQRWNFTKIMKPKYRSLSYPFLLPKSQATAHELRYQVPGAVHAKAQLLRSAADWSAGIKHHEESIHAAYTHVIENSKHYIYIENQFFISCADDKVVFNKVGNAIAQRILKAHREGQRYRVYIVIPLLPGFEGDISTGGGNALQAIMHFNYRTMCRGESSILEQLKPELGNKWINYISFCGLRTHAELEGNLVTELIYVHSKLLIADDNTVIIGSANINDRSMLGKRDSEMAVIVQDTETVPSVMDGKEYQAGRFAQGLRLECFRLVLGYLSDPSEDIQDPVSDKFFKEIWVSTAARNATIYDKVFRCLPNDEVHNLIQLRDFINKPILAKEDRLRAEEELRKIRGFLVQFPFYFLSEENLLPSVGTKEAIVPMEVWT
B3: PLD1 (R304A) (enzyme, UniProt P70496 1-1074)
chain: MSLRSEARVNTSTLQKIAADMSNLIENLDTRELHFEGEEVEYDASPGDPTAQEACIPFSSIYNTQGFKEPNIQIYLSGCPVKAQVLEVERFTSTSRMPSVNLYTIELTHGEFTWQVKRKFKHFQEFHRELLKYKAFIRIPIPTKRHTFRRQNVKEEPREMPSLPRSSENAIQEEQFFGRRKQLEDYLTKILKMPMYRNYHATTEFLDVSQLSFIHDLGPKGLEGMIMKRSGGHRIPGVNCCGHGRACYRWSKRWLIVKDSFLLYMKPDSGAIAFVLLVDKEFRIKVGKKETETKYGLRIDNLSATLILKCNSYRHARWWGGAIEEFIQKHGTDFLKDHRFGSYAAVHENILAKWYVNAKGYFEDIANAMEGATEEIFITDWWLSPEIFLKRPVVEGNRWRLDCILKRKAQQGVRIFIMLYKEVELALGINSEYTKRTLMRLHPNIKVMRHPDHVSSSVYLWAHHEKLVIIDQSVAFVGGIDLAYGRWDDNEHRLTDVGSVKRVTSGQSLGSLTAASVESMESLSLKDKHQSHKNEPVLKSVNDTDMKLKGIGKSRKFSKFSLYRQLHRRNLHNSDSISSVDSASSYFNHYRSHQNLIHGIKPHLKLFRPSSESEQGLTRHSADTGSIRSVQTGVGELHGETRFWHGKDYCNFVFKDWVQLDKPFADFIDRYSTPRMPWHDIGSVVHGKAARDVARHFIQRWNFTKIMKPKYRSLSYPFLLPKSQATAHELRYQVPGAVHAKAQLLRSAADWSAGIKHHEESIHAAYTHVIENSKHYIYIENQFFISCADDKVVFNKVGNAIAQRILKAHREGQRYRVYIVIPLLPGFEGDISTGGGNALQAIMHFNYRTMCRGESSILEQLKPELGNKWINYISFCGLRTHAELEGNLVTELIYVHSKLLIADDNTVIIGSANINDRSMLGKRDSEMAVIVQDTETVPSVMDGKEYQAGRFAQGLRLECFRLVLGYLSDPSEDIQDPVSDKFFKEIWVSTAARNATIYDKVFRCLPNDEVHNLIQLRDFINKPILAKEDRLRAEEELRKIRGFLVQFPFYFLSEENLLPSVGTKEAIVPMEVWT

No constants are given. Whether binding was seen depends on the method and setting. In cells and extracts the contact can be indirect. Some binding calls cover weakened binding; strength is not graded here.

The assay concerns the target epidermal growth factor receptor (EGFR), endogenous in HeLa cells (human (endogenous in HeLa)) (UniProt P00533). The experiment in a line: co-IP; extracts of EGF-treated HeLa cells transfected with PLD1 constructs, immunoprecipitated with anti-EGFR antibody and immunoblotted.
As to B1, the binding entry is “binds”. For B2, the binding entry was “binds”. Under B3 stands “binds”.
